This is one part of the list. At the low end of the ranking the order means little.
What follows are sequences tested against T1, GST-Rok (full length) (UniProt O34857) (assay: protein binding microarray). Settings: Rok is a gene silencer of Bacillus subtilis; high values mean tight binding; most listed sequences are background and not binding sites; double strand, one strand shown.
T1 sequence: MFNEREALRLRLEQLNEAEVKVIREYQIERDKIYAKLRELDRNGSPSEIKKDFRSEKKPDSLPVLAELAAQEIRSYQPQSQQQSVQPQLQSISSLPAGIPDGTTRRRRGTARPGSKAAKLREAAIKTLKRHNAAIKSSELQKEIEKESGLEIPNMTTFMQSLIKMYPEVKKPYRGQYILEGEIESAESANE
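Further: rank score from −0.5 (least bound) to 0.5 (best bound).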

Sequence | binding signal
ACTAGGAC | -0.0121 E-score
AGGGCAAT | -0.214 E-score
ACGCCAAA | -0.161 E-score
AGATGAAG | -0.142 E-score
GAAATTCC | 0.0555 E-score
AGACGCCG | -0.261 E-score
CAATGTAG | 0.265 E-score
ACCGACGA | -0.132 E-score
CTTCGGGA | -0.224 E-score
CCAAGTAG | 0.236 E-score
CGGTGTAG | 0.146 E-score
AGCGAATA | 0.00411 E-score
CTGTTGTA | 0.135 E-score
CCTATGGA | -0.0907 E-score
CTGTAAGA | 0.0404 E-score
AGTCCAGA | 0.00806 E-score
CACAACAG | -0.173 E-score
AGCGGCTC | -0.196 E-score
CCCGATCG | -0.0661 E-score
GCGCGCGA | 0.176 E-score
AGAGCGCT | 0.0771 E-score
CACTTAGA | -0.0937 E-score
CACACGTA | 0.0249 E-score
GAACTCCA | -0.108 E-score
CCTGTCGC | -0.207 E-score

Sequence | binding signal
AGTCACTG | -0.108 E-score
ATGAGCCG | -0.132 E-score
TGTAACAA | 0.162 E-score
CACGAAGA | 0.00904 E-score
ATCATCAT | 0.179 E-score
GGAAGTCC | -0.155 E-score
CGCGTAGA | -0.0533 E-score
GATGGCAA | -0.13 E-score
CGCCGGGC | -0.359 E-score
ATCTTCTC | 0.0728 E-score
AGCTCTTG | -0.0196 E-score
GTGGTCTA | 0.0243 E-score
GCATGTAA | 0.165 E-score
ACGACGAG | 0.0239 E-score
AAACCATG | 0.0884 E-score
AAGTGAAA | 0.19 E-score
CATACCTA | 0.334 E-score
AAACCCAT | -0.139 E-score
CGTCCAAC | -0.164 E-score
ACCATGAT | 0.129 E-score
GAAATTAA | 0.302 E-score
TAACTCGA | 0.0667 E-score
ATGCTACG | 0.0613 E-score
AGTTTTGC | 0.173 E-score
ACGTTGAG | -0.059 E-score

Sequence | binding signal
TATCCTCA | 0.092 E-score
ACACAAGT | 0.0703 E-score
AAGCGAAA | -0.0605 E-score
AGTCGCAA | -0.0221 E-score
AAATAATG | 0.189 E-score
ATTAGTAC | 0.3 E-score
CTCCTACC | -0.0309 E-score
CCAAGACC | -0.18 E-score
ATGTACAA | 0.311 E-score
ACTGCCCG | -0.259 E-score
ACCTCTTG | -0.0052 E-score
GCCTCGAA | -0.0926 E-score
TACAGTCA | -0.014 E-score
AGACTCCC | -0.346 E-score
ATTACCCG | -0.0215 E-score
TACAGCGA | 0.0967 E-score
ATTGACCA | 0.138 E-score
ACGACTTA | 0.132 E-score
CAGACGGA | -0.175 E-score
CGGAAGCC | -0.359 E-score
CTGTCCCA | -0.115 E-score
ATGTTACG | 0.167 E-score
CAGTCTTC | -0.0238 E-score
ATGGCGTC | -0.204 E-score
GCAGTCAC | 0.0327 E-score

Sequence | binding signal
CTACAAGC | 0.195 E-score
ATGAGTGC | 0.0571 E-score
AAAGGCTT | -0.31 E-score
ATGCCTAC | 0.131 E-score
AGGCTCGG | -0.353 E-score
GCTGAGCC | -0.159 E-score
AGTATGTG | 0.249 E-score
ACACGGTC | -0.222 E-score
AAGAAACC | -0.0246 E-score
AAACTCTA | 0.186 E-score
GACCTTTA | -0.0808 E-score
TCAGCTAA | 0.0254 E-score
AGAAGTCG | -0.0803 E-score
ATGGAGAA | 0.111 E-score
GGGACTCA | -0.275 E-score
CGCGAGAC | -0.109 E-score
GCCGGCTA | -0.265 E-score
CCGAGGGA | -0.143 E-score
ACGCCCAA | -0.176 E-score
ATGGGGTC | -0.3 E-score
CTTTACAA | 0.143 E-score
AGATACCT | 0.136 E-score
ATTGAAAC | 0.0308 E-score
ATCAACGA | 0.0269 E-score
ATTAGGGG | -0.305 E-score

Sequence | binding signal
ACTTTTCA | 0.00763 E-score
ACGCACAT | 0.176 E-score
CGTTAGGA | -0.0421 E-score
AATCTGAT | 0.0468 E-score
GTATGACA | 0.0326 E-score
CCATTTCA | 0.0264 E-score
CAAGGACC | -0.218 E-score
AATCACAA | 0.217 E-score
AAACATTG | 0.0309 E-score
ACTTCCGA | 0.0719 E-score
AGAGACAC | 0.0712 E-score
GCAGTAAC | 0.138 E-score
AGAGCGTG | -0.0184 E-score
CAGCGGCC | -0.386 E-score
GTAGTTGA | 0.241 E-score
CCGCAATA | 0.0972 E-score
AACGGAAA | 0.0411 E-score
ACTCTAAG | -0.163 E-score
CAAATTCC | -0.0577 E-score
ACATTCAC | 0.0736 E-score
TCAGCGAA | -0.0379 E-score
GCCACTAC | 0.00905 E-score
AGCTTTAC | 0.0967 E-score
GCTTGTCA | -0.156 E-score
ATTAGGTA | 0.247 E-score

Sequence | binding signal
ACGTCAAG | 0.0301 E-score
CGGTCCCC | -0.437 E-score
GAAGAGCC | -0.299 E-score
GAAAAGCA | -0.119 E-score
GCAAGTCA | -0.0021 E-score
ACAGCTGA | 0.0846 E-score
AAGCTCTA | -0.0144 E-score
GTTCGGCA | 0.0176 E-score
CCTCCCCA | -0.376 E-score
ACCTATAG | 0.308 E-score
ATGCTTTC | 0.0521 E-score
AAACACTA | 0.183 E-score
GCACTGCA | -0.00139 E-score
AATGGGTC | -0.0106 E-score
ATTTGGAC | -0.0914 E-score
ATAGTTTG | 0.364 E-score
GTTCAAAA | 0.0113 E-score
GCCAGGGA | -0.302 E-score
CGGCAACA | -0.0449 E-score
CAGATGCG | -0.144 E-score
TATAGAGA | 0.103 E-score
ATTTCAAG | 0.0903 E-score
GAAAAATC | 0.00856 E-score
ATAATGGA | 0.205 E-score
CATATCGG | 0.0529 E-score

Sequence | binding signal
AGCATTTC | -0.102 E-score
CAGAAGGA | -0.293 E-score
CGCTCTAC | -0.0836 E-score
CATCAGGC | -0.154 E-score
AGATACCG | 0.12 E-score
AATTGGCC | -0.129 E-score
ACCCAACT | 0.216 E-score
CGCGAGAG | -0.176 E-score
CGCGTGCA | -0.0714 E-score
AATAGAAT | 0.329 E-score
GCTCCGAA | -0.117 E-score
CCGAGAGA | -0.0914 E-score
AAGCTATC | 0.218 E-score
AGACAGCG | -0.0894 E-score
GGACGCCA | -0.256 E-score
CCACAGCG | -0.201 E-score
ATCGCTGC | 0.0638 E-score
CCCCAGAA | -0.332 E-score
CCTTCAGA | -0.26 E-score
ACATCTGA | 0.222 E-score
CTAACCAG | 0.0172 E-score
TGCCCGCA | -0.121 E-score

Source: publication PMC6212790
